# Certain results were filed several times, with different values. This is not the full list of results. There may be further records. Results that share an entry repeat one measurement (runs, samples, wells, individuals or studies). Counts like (3×) count equal records among those shown.
# Test system: 233499-124-R-J3-PDC spheroids with HUVEC/MSC, viability
# Assay: Anticancer human tumor 233499-124-R-J3-PDC patient-derived colon adenocarcinoma cell line growth inhibition [PI3K]
# Details: for viability, T/C: stronger effect = lower value; for IC50: compound alone
# Source text: Combinatorial screen of targeted agents with the PI3K inhibitors inavolisib, alpelisib, duvelisib, and copanlisib in multi-cell type tumor spheroids
# A high-throughput screen of multi-cell type tumor spheroids was designed to identify active combinations of targeted small molecules and PI3K pathway inhibitors. Complex spheroids include a stromal component modeled by human endothelial cells (HUVEC) and fibroblasts modeled by human mesenchymal stem cells (MSCs). The concentration ranges selected for each drug and investigational agent were based upon clinically achievable concentrations if the clinical Cmax of the agent was known.
# Compounds. The drugs and investigational agents: inavolisib (NSC800729), alpelisib (NSC765974), duvelisib (NSC772469), copanlisib (NSC816437), ipatasertib (NSC767898), afuresertib (NSC778305), talazoparib (NSC767125), sapanisertib (NSC764658), selumetinib (NSC741078), tovorafenib (DAY101, NSC766906), vemurafenib (NSC761431), ravoxertinib (NSC781343), sotorasib (NSC818433), MRTX1133 (NSC 836407), abemaciclib (NSC 768073), palbociclib (NSC758247), venetoclax (NSC 766270), SY5609 (NSC837396), enzalutamide (NSC755605), and darolutamide (NSC825331), were obtained from the National Cancer Institute (NCI) Developmental Therapeutics Program Chemical Repository. The FDA-approved anticancer drug set is available from the NCI Developmental Therapeutics Program. […] The stock solutions were prepared in dimethyl sulfoxide (DMSO, Sigma-Aldrich, St. Louis, MO, cat. D2650) at 800-fold the tested concentration and stored at -70 degrees C prior to their use. All drugs and investigational agents were tested over a range starting from a high concentration at or near the clinical Cmax and decreasing in half-log increments. If the clinical Cmax for an agent had not been determined, the highest concentration tested was 10 microM.
# Cell Culture. All cells were maintained in an incubator at 37 degrees C and 5% CO2 with 95% humidity. The PDC lines were cultured according to standard operating procedures established by the NCI PDMR (https://pdmr.cancer.gov/sops/default.htm). All PDCs were thawed and cultured in Matrigel-coated flasks prepared with a working solution of 1X Ham's F-12 nutrient mix, without supplementation (Invitrogen, Waltham, MA, cat. 11765054), 100 U/mL penicillin-streptomycin (Invitrogen, cat. 15140122), and 2.5% Matrigel (Corning Inc., Corning, NY, cat. 354248) for the first three passages. The 354836-022-R-J1-PDC, 475296-252-R-J1-PDC, and 997726-040-R-J2-PDC lines were cultured in 6A media, which includes advanced DMEM/F-12 (Thermo Fisher Scientific, cat. 12634028), 10 mM HEPES (Thermo Fisher Scientific, cat. 15630080), 1X GlutaMAX supplement (Thermo Fisher Scientific, cat. 35050061), 0.1 mg/mL primocin (InvivoGen, San Diego, CA, cat. ant-pm-2), 10% defined fetal bovine serum, heat inactivated (HyClone Laboratories Inc., Logan, UT, cat. SH30070.03HI), 50% L-WRN conditioned media (ATCC, cat. CRL-3276), 1.25 mM N-Acetyl-L-cysteine (Sigma-Aldrich, cat. A9165), 10 mM nicotinamide (Sigma-Aldrich, cat. N0636), 1X B-27 supplement (Thermo Fisher Scientific, cat. 17504044), 1X N-2 supplement (Thermo Fisher Scientific, cat. 17502048), and 10 microM Y-27632 dihydrochloride (Tocris Bioscience, Bristol, United Kingdom, cat. 1254). The 624824-186-R-J2-PDC line was cultured in 6C/Colon 1B media, which includes all 6A media components plus 50 ng/mL human EGF recombinant protein (Thermo Fisher Scientific, cat. PHG0311). […]
# 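Further: spheroids exposed to agents for seven days before readout.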
# 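Wherever viability, T/C is given: percent viability relative to DMSO vehicle control taken as 100%.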
smiles,measurement,setting,value
CNC(=O)c1ccc(N2C(=S)N(c3ccc(C#N)c(C(F)(F)F)c3)C(=O)C2(C)C)cc1F,"viability, T/C",compound alone 10 µM,"66.6, 75.9, 92.4, 70.1%"
CC(C)n1nc(-c2ccc3oc(N)nc3c2)c2c(N)ncnc21,"viability, T/C",compound alone 0.000316 µM,"96.3, 84.6, 77.1, 70.7%"
COc1c(OCCCN2CCOCC2)ccc2c3n(c(=NC(=O)c4cnc(N)nc4)nc12)CCN3,"viability, T/C",compound alone 0.00316 µM,"95.1, 96.5, 107, 79.9, 70.8, 77.7, 87, 92.1%"
same,"viability, T/C",compound alone 0.1 µM,"85.5, 64.4, 59 (2×), 66.1, 65, 73.5% (2×)"
Cn1ncnc1[C@H]1c2n[nH]c(=O)c3cc(F)cc(c23)N[C@@H]1c1ccc(F)cc1,"viability, T/C",compound alone 0.00316 µM,"84.3, 88.2, 88.1, 110%"
same,"viability, T/C",compound alone 0.01 µM,"104, 91.3, 91.4, 78.5%"
CC(Nc1ccc2c(c1)OCCn1cc(N3C(=O)OCC3C(F)F)nc1-2)C(N)=O (stereo not drawn),"viability, T/C",compound alone 0.00316 µM,"101, 90.4, 89.9, 71.9, 99.3, 86.9, 84.2, 85.2%"
same,"viability, T/C",compound alone 0.01 µM,"78.9, 87.6, 82.2, 62.7, 99.7, 99.8, 88.6%"
same,"viability, T/C",compound alone 0.0316 µM,"85.5, 76.9, 87.9, 83.1, 93.7, 76, 104, 84%"
same,"viability, T/C",compound alone 0.316 µM,"74.7, 91.5, 85.5, 87.2, 65.8, 83.3, 80.5, 82%"
CCN1CCN(Cc2ccc(Nc3ncc(F)c(-c4cc(F)c5nc(C)n(C(C)C)c5c4)n3)nc2)CC1,IC50,,"259 nM, 370 nM, > 1 µM, 521 nM"
same,"viability, T/C",compound alone 0.00316 µM,"71.8, 98.6, 90.2, 89%"
Cn1cnc2c(F)c(Nc3ccc(Br)cc3Cl)c(C(=O)NOCCO)cc21,IC50,,"262 nM, 310 nM, > 3 µM, 486 nM"
same,"viability, T/C",compound alone 0.03 µM,"82.6, 83.5, 61, 88.2%"
CC(C)NCC(C(=O)N1CCN(c2ncnc3c2C(C)CC3O)CC1)c1ccc(Cl)cc1 (stereo not drawn),"viability, T/C",compound alone 0.1 µM,"75.8, 108, 96.2, 85.4%"
same,"viability, T/C",compound alone 10 µM,"69.2, 100, 83.7, 96.5%"
C[C@@H](NC(=O)c1ncnc(N)c1Cl)c1ncc(C(=O)Nc2cc(C(F)(F)F)c(Cl)cn2)s1,"viability, T/C",compound alone 0.0316 µM,"73.1, 118, 98.1, 98.9%"
same,"viability, T/C",compound alone 0.1 µM,"92.1, 82.8, 109, 106%"
same,"viability, T/C",compound alone 0.316 µM,"99.9, 99.7, 109, 129%"
same,"viability, T/C",compound alone 1 µM,"99.9, 122, 115, 130%"
CC(Cn1ccc(-c2ccc(C#N)c(Cl)c2)n1)NC(=O)c1cc(C(C)O)[nH]n1 (stereo not drawn),"viability, T/C",compound alone 0.0316 µM,"99.7, 84.5, 76.1, 103%"
same,"viability, T/C",compound alone 0.1 µM,"103, 73.8, 97.3, 86.8%"
same,"viability, T/C",compound alone 10 µM,"69.6, 99, 85.1, 114%"
Cc1nc(NC(=O)N2CCCC2C(N)=O)sc1-c1ccnc(C(C)(C)C(F)(F)F)c1 (stereo not drawn),"viability, T/C",compound alone 0.316 µM,"70, 99.2, 85.1, 85.8, 81.4, 78.7, 91.8, 105%"
same,"viability, T/C",compound alone 1 µM,"87.3, 66.9, 77.3, 70.8, 81.6, 73.2, 49.8, 62.1%"
same,"viability, T/C",compound alone 3.16 µM,"85.8, 71.1, 62.5, 65.2, 58.7, 76.1, 61.2, 77.5%"
same,"viability, T/C",compound alone 10 µM,"51.3, 30.7, 42.2, 25.3, 38.7, 32.2, 30.4, 48.5%"
same,IC50,run of 05/08/2023,"> 10 µM, 5.37 µM, 6.4 µM, 4.85 µM, 5.25 µM, 6.25 µM, 3.74 µM, 9.62 µM"
CC(=O)c1c(C)c2cnc(Nc3ccc(N4CCNCC4)cn3)nc2n(C2CCCC2)c1=O,"viability, T/C",compound alone 0.0316 µM,"87.8, 82, 83, 112%"
CC1(C)CCC(CN2CCN(c3ccc(C(=O)NS(=O)(=O)c4ccc(NCC5CCOCC5)c([N+](=O)[O-])c4)c(Oc4cnc5[nH]ccc5c4)c3)CC2)=C(c2ccc(Cl)cc2)C1,IC50,,"6.16 µM, 5.06 µM, 5.78 µM, > 10 µM"
same,"viability, T/C",compound alone 0.316 µM,"85.3, 69.1, 98.3, 103%"
same,"viability, T/C",compound alone 1 µM,"114, 75.1, 112, 100%"
same,"viability, T/C",compound alone 10 µM,"13.6, 3.12, 2.79, 117%"
C=CC(=O)N1CCN(c2nc(=O)n(-c3c(C)ccnc3C(C)C)c3nc(-c4c(O)cccc4F)c(F)cc23)C(C)C1 (stereo not drawn),"viability, T/C",compound alone 0.316 µM,"86.5, 79.6, 92.8, 111%"
same,"viability, T/C",compound alone 10 µM,"103, 107, 79.6, 111%"
Cn1nccc1Nc1nccc(-c2ccn(C(CO)c3ccc(Cl)c(F)c3)c(=O)c2)n1 (stereo not drawn),"viability, T/C",compound alone 0.0316 µM,"89.8, 68.8, 107, 97.1%"
same,"viability, T/C",compound alone 0.316 µM,"54.6, 68.4, 83.1, 87.3%"
same,"viability, T/C",compound alone 1 µM,"92.5, 67, 88.8, 86.9%"
same,"viability, T/C",compound alone 3.16 µM,"47.7, 73, 63.5, 85.2%"
CC1(C)CCC(Nc2ncc(C(F)(F)F)c(-c3c[nH]c4c(P(C)(C)=O)c(C#N)ccc34)n2)CN1 (stereo not drawn),IC50,,"201, 128, 231, 54.2 nM"
same,"viability, T/C",compound alone 0.1 µM,"69.8, 42.7, 64, 53.3%"
CCCS(=O)(=O)Nc1ccc(F)c(C(=O)c2c[nH]c3ncc(-c4ccc(Cl)cc4)cc23)c1F,"viability, T/C",compound alone 0.0316 µM,"97.5, 95, 102, 76.3%"
same,"viability, T/C",compound alone 3.16 µM,"80.1, 102, 86.9, 74%"

# From PubChem BioAssay AID1963984 (Molecular Pharmacology Branch, DTP, NCI, 2024)
